# In PubChem BioAssay AID624417 (National Center for Advancing Translational Sciences (NCATS), 2012):
# The campaign covered roughly 410,000 compounds. About 6,400 (1.6%) were called active. Inconclusive results, whose numbers are uncertain, are shown with a selection of clear calls. Calls follow the shape of the dose curve; as a rule, active = well fitted inhibition curve with a large enough effect; inconclusive = small, poorly fitted or top-dose-only effect; inactive = no such curve, though single readings can be large or run the other way. Potencies of inconclusive entries are left out as doubtful fits.
# Biological target: Glucagon-like peptide 1 receptor (Homo sapiens) (UniProt P43220)
# Experiment: qHTS of GLP-1 Receptor Inverse Agonists (Inhibition Mode); also: nearly all actives have a fitted effect of over 55% in size
# Details: HEK293 GLP-1R CRE-luciferase, luminescence, 24 h, GLP-1R form is constitutively active; activity change, negative = inhibition: at 38.3 µM (top of the series) unless noted
# In short: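 Using stably transfected HEK293 (constitutively active GLP-1R, cAMP-luciferase reporter), compounds were incubated 24 hr and luciferase measured by luminescence.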
# % is scaled to controls: 0 for no effect and ±100 for the full control effect; potency is read from the fitted curve at half-maximal effect; tags tell the direction and shape of the fitted curve.
# Sequence of UniProt P43220 (P43220 whole entry, looked up): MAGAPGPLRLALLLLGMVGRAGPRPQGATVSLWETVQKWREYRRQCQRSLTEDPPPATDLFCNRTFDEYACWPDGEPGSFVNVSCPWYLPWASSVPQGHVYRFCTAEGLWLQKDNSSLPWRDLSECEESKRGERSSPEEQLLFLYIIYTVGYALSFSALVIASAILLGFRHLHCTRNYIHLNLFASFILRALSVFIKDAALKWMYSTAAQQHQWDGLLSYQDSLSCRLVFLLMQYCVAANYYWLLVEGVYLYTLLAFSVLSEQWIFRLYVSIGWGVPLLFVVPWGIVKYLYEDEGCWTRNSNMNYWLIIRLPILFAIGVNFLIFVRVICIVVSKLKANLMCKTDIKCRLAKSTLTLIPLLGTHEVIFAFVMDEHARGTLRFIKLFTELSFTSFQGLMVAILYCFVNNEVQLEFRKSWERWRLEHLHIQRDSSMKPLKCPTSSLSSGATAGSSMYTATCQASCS
Compound,Potency,"activity change, negative = inhibition"
O=C1C(NS(=O)(=O)c2ccccc2)=C(N2CCN(c3ccc(F)cc3)CC2)C(=O)c2ccccc21,"inconclusive [inhibitor, partial curve, poor fit]",
CCCCc1ccc(Nc2ncnc3nc[nH]c23)cc1,inactive,
NNc1nc(-c2ccccc2)cc(-c2ccc(Br)cc2)n1,"inconclusive [inhibitor, partial curve, poor fit]",
CCN1CCN(c2ccc(NC(=O)c3ccc([N+](=O)[O-])o3)cc2Cl)CC1,inactive,
Cc1c(NC(=O)c2ccc(Cl)nc2)cccc1-c1nc2cccnc2s1,"inconclusive [inhibitor, single point]",
O=C(Nc1ccc(C(=O)N2CCCc3ccccc32)cc1)c1cccs1,"inconclusive [inhibitor, single point]",
CC(C)(C)C(=O)NCCc1nc2ccccc2n1CCCCOc1ccc(Cl)cc1,active: 10 µM,
Cc1ccc(C(=O)C(C)OC(=O)C2CCN(c3ccc(C(F)(F)F)cn3)CC2)cc1 (stereo not drawn),active: 10 µM,
COc1ccc(-c2nc(-c3ccccc3)c(-c3cc([N+](=O)[O-])ccc3C)[nH]2)cc1O,"inconclusive [inhibitor, partial curve, poor fit]",
CCCCCCNC(=O)CCCCCNS(=O)(=O)c1ccc(Br)cc1,"inconclusive [inhibitor, partial curve, poor fit]",
CC1CCN(S(=O)(=O)c2nnc(NC(=O)c3cccc([N+](=O)[O-])c3)s2)CC1,"inconclusive [inhibitor, full curve, poor fit]",
CCc1ccccc1OC[C@@H](O)CN[C@H]1CCCc2ccccc21,"inconclusive [inhibitor, single point]",
CCOC(=O)c1ccc(/[N+]([O-])=C/c2ccccc2)cc1,inactive,
COc1ccc(Cn2c(C(=O)O)c(CNCCc3cccs3)c3ccc(C)cc32)cc1,inactive,
Oc1[nH]c2ccccc2c1C1=NCCCCC1,"inconclusive [inhibitor, single point]",
COc1ccc(OCCNc2cc(N3CCCCC3)ccc2[N+](=O)[O-])cc1,"inconclusive [inhibitor, single point]",
Cc1cccc(NC(=O)CN2C(=O)NC3(CCCC3)C2=O)n1,inactive,
CCN(c1ccccc1)S(=O)(=O)c1cccc(C(=O)NCCOc2ccccc2OC)c1,"inconclusive [inhibitor, single point]",
Cc1nn(-c2ccc(Cl)cn2)c2c1C(=O)CC(C)(C)C2Br (stereo not drawn),"inconclusive [inhibitor, single point]",
CCn1c(SCC(=O)NCC2CCCO2)nc2c(c1=O)SCC2 (stereo not drawn),inactive,
Cc1cc(C)cc(OCCCOc2cccc3cccnc23)c1,"inconclusive [inhibitor, single point]",
CCOC(=O)c1cc2c(C)n(-c3ccc(OCC)cc3)c(C)c2ccc1=O,"inconclusive [inhibitor, partial curve, poor fit]",

Compound,Potency,"activity change, negative = inhibition"
O=S1(=O)CCN(C2CC2)CC1,inactive,
N#CC(=C(O)COC(=O)c1ccc2c(c1)OCCO2)c1nc2ccccc2[nH]1,"inconclusive [inhibitor, partial curve, poor fit]",
CCOC(=O)c1cnc(NCc2ccccc2OC)c2ccccc12,"inconclusive [inhibitor, single point]",
S=C1Cc2ccccc2C(c2ccc(Cl)cc2)N1 (stereo not drawn),"inconclusive [inhibitor, partial curve, poor fit]",
CC1CCCCN1C(=O)CCn1c(=S)oc2ccccc21 (stereo not drawn),"inconclusive [inhibitor, single point]",
COc1cccc2sc(=NC(=O)c3ccc(S(=O)(=O)N4CCCCC4)cc3)n(C)c12,inactive,
CCc1nc2c(OCCOc3ccccc3)cccn2c1N(C)C(=O)c1cccs1,"inconclusive [inhibitor, partial curve, poor fit]",
COc1ccc(/C=C/C(=O)Nc2sc3c(c2C(N)=O)CCCC3)cc1,inactive,
O=S(=O)(c1cc(F)ccc1F)N1CCC2(CC1)OCCN2S(=O)(=O)c1cccs1,"inconclusive [inhibitor, single point]",
COc1cc(N(C(=O)Cc2cccs2)C(C(=O)NC2CCCCC2)c2cccc(OC)c2OC)ccc1-n1cnnn1 (stereo not drawn),"inconclusive [inhibitor, single point]",
COc1c(C)cc(C(O)c2ncc(-c3ccccc3C)[nH]2)cc1C (stereo not drawn),"inconclusive [inhibitor, single point]",
Cc1cccc(N2CCN(Cc3cnc(Cl)s3)CC2C)c1 (stereo not drawn),"inconclusive [inhibitor, partial curve, poor fit]",
Cn1nc(-c2ccccc2)cc1NC(=O)c1ccccc1,,inconclusive: -58.2% [inhibitor]
CCOc1ccccc1CNC(=O)CNC(=O)c1cccs1,"inconclusive [inhibitor, single point]",
Fc1ccc(-c2cc3nc4c(c(N5CCOCC5)n3n2)CCCC4)cc1,"inconclusive [inhibitor, single point]",
Cc1nc2ccccc2n1CC(=O)NCc1ccccc1,inactive,
COc1ccc(S(N)(=O)=O)cc1C(=O)NCC1(N2CCCCC2)CCCCC1,"inconclusive [inhibitor, single point]",
O=S(=O)(c1ccccc1)N1CCN(Cc2ccccc2)c2ccccc21,"inconclusive [inhibitor, single point]",
COc1cnc(-c2ccccn2)nc1N(C)C,"inconclusive [inhibitor, single point]",
CCOC(=O)[C@]12CCCC=C1N(CCc1ccc(OC)c(OC)c1)C(=O)[C@H](CC(=O)NCC13CC4CC(CC(C4)C1)C3)C2,"inconclusive [inhibitor, partial curve, poor fit]",
C#CCOc1ccc(-c2nnc(Nc3cccc(C)c3)c3ccccc23)cc1,"inconclusive [inhibitor, partial curve, poor fit]",
